Screen size: about 310,000 compounds; about 2,200 (0.71%) showed an effect of 50% or more. Effects have a minus sign here. The list shows a part of the results.
The molecules below were run against human ether-à-go-go-related gene (hERG) potassium channel (human, UniProt Q12809) (assay: primary screen, population patch clamp on CHO cells stably expressing hERG).
human ether-à-go-go-related gene (hERG) potassium channel, sequence (Q12809 whole entry, looked up): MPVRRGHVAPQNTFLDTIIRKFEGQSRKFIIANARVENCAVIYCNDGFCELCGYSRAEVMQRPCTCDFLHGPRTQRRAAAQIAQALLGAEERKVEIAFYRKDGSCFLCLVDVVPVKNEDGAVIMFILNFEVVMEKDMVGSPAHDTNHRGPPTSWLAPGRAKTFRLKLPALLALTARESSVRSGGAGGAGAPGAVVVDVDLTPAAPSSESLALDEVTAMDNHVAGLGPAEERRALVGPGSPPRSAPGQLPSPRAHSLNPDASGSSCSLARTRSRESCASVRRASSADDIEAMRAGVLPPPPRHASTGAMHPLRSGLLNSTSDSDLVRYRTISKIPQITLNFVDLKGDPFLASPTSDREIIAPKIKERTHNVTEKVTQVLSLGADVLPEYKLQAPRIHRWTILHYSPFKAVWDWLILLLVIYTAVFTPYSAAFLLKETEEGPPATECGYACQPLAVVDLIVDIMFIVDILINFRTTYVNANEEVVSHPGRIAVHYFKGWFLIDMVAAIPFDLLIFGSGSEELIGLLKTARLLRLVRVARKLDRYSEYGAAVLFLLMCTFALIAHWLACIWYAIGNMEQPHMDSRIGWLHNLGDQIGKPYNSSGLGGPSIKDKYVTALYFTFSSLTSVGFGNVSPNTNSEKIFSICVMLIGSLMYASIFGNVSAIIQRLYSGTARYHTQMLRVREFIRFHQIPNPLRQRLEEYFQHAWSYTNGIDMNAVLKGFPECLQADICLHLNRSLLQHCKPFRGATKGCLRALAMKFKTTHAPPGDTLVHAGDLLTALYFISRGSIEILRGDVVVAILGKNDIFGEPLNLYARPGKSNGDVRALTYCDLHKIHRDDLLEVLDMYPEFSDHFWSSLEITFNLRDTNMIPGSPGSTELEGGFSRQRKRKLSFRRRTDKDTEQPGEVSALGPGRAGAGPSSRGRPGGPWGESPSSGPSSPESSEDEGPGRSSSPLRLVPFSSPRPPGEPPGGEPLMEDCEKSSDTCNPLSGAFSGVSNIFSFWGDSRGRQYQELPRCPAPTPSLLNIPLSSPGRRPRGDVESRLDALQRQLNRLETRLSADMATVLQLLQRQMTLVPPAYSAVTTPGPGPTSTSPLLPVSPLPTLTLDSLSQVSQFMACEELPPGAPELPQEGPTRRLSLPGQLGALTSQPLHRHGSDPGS

Going from `COc1cc(C(=O)NCCN2CCOCC2)cc(OC)c1OC` to `COC(=O)c1c(NC(=O)Cc2ccc(OC)c(S(=O)(=O)N3CCOCC3)c2)sc(C)c1C`, the “hERG current change (%, negative = inhibition) at 1uM” value falls from 15.7% to 10.9%.

Compared with `CCC(C)NC(=O)CSc1c2c(nc3ccccc13)CCCC2` (stereo not drawn), `CC(NC(=O)CSc1nc2ccccc2n1C)c1ccccc1` (stereo not drawn) is higher in “hERG current change (%, negative = inhibition) at 1uM” value: 1.42% for the first, 6.28% for the second.

First: CCn1c(C)cc(C(=O)CSc2nnnn2C2CCCC2)c1C
Second: CCn1c(SCC(=O)NC2CC2)nnc1-c1cccc(OC)c1
The “hERG current change (%, negative = inhibition) at 1uM” value of the first is lower: -9.53% for the first, 17.5% for the second.

First: CN(C)c1cc[n+](CC(=O)c2ccc(-c3ccccc3)cc2)cc1.[Cl-]
Second: O=C(O)c1ccc(CNS(=O)(=O)c2ccc(Oc3ccccc3Cl)cc2)cc1
The “hERG current change (%, negative = inhibition) at 1uM” value of the first is lower: 13.1% for the first, 17.3% for the second.

First: CC(=O)Nc1ccc(S(=O)(=O)N2CCN(C(=O)c3ncoc3-c3cccc(C)c3)CC2)cc1
Second: Cc1ccc(OCC(=O)Nc2ccc(N3CCN(S(C)(=O)=O)CC3)cc2)cc1
The “hERG current change (%, negative = inhibition) at 1uM” value of the first is higher: 10.2% for the first, -11.8% for the second.

Compared with `CCC(CC)c1nnc(NC(=O)CN2C(=O)C3C4C=CC(C4)C3C2=O)s1` (stereo not drawn), `CCCC(=O)Nc1nnc(SCC(=O)NCc2cccs2)s1` is higher in “hERG current change (%, negative = inhibition) at 1uM” value: 4.46% for the first, 11.3% for the second.

First: O=C(CN1CCN(c2cccc(Cl)c2)CC1)Nc1ccc([N+](=O)[O-])cc1C(=O)Nc1ccccc1F
Second: N#CCCn1cc(C(=O)Nc2ccccc2Br)c(-c2ccc([N+](=O)[O-])cc2)n1
The “hERG current change (%, negative = inhibition) at 1uM” value of the first is higher: 11.4% for the first, -5.15% for the second.

First: CCCCC(=O)NCCc1cc2c(OC)ccc(OC)c2[nH]c1=O
Second: COc1ccc(/C=C/C(=O)c2c(C)cc(C)[nH]c2=O)c2ccccc12
The “hERG current change (%, negative = inhibition) at 1uM” value of the first is higher: 11.9% for the first, 11.3% for the second.

Going from `C/C(=N\NC(=O)CNc1cccc(C(F)(F)F)c1)c1ccc(Br)cc1` to `C/C(=N\NC(=O)Cc1ccc(Cl)c(Cl)c1)c1cccnc1`, the “hERG current change (%, negative = inhibition) at 1uM” value falls from 14.2% to -8.31%.

Compared with `COc1cccc(/C=N/Nc2ccc(C(=O)O)cc2)c1O`, `CCN(CC)S(=O)(=O)c1cc(C(=O)Nc2ccccc2C(=O)O)ccc1OC` is higher in “hERG current change (%, negative = inhibition) at 1uM” value: 8.08% for the first, 18.6% for the second.

Going from `Cc1ccc(NP(=O)(c2ccc(N(C)C)cc2NC(=O)c2cccs2)N2CCOCC2)cc1` (stereo not drawn) to `Cc1cc(NC(=O)c2ccc(F)cc2)ccc1NC(=O)c1ccco1`, the “hERG current change (%, negative = inhibition) at 1uM” value rises from 3.35% to 11.5%.

Going from `O=C(COC(=O)c1ccc2[nH]c3c(c2c1)CCCC3)Nc1ccccc1` to `Cc1noc(C)c1C(=O)OCC(=O)Nc1cc(Cl)ccc1Oc1ccccc1`, the “hERG current change (%, negative = inhibition) at 1uM” value falls from 16.7% to -3.84%.

Going from `CCN(CC)C(=O)C(=O)N/N=C/c1ccc(F)cc1` to `Cc1ccc(C)c(NC(=O)NNC(=O)c2ccc3ccccc3c2O)c1`, the “hERG current change (%, negative = inhibition) at 1uM” value falls from 10.7% to 10.4%.

Going from `COc1ccccc1NC(=O)C(=O)NCC1COc2ccccc2O1` (stereo not drawn) to `COc1ccc(NC(=O)Cc2csc(NC(=O)Nc3ccccc3OC)n2)c(OC)c1`, the “hERG current change (%, negative = inhibition) at 1uM” value falls from 4.85% to 1.43%.

First: CC(=O)c1c(N2CCN(c3ccc(F)cc3)CC2)nc(=S)n(-c2ccccc2)c1C
Second: O=C(NCC(c1cccnc1)N1CCN(c2ccccc2F)CC1)c1ccco1 (stereo not drawn)
The “hERG current change (%, negative = inhibition) at 1uM” value of the first is lower: -69.3% for the first, 11.5% for the second.

First: Cc1ccc(-c2nc(CS(=O)CC(=O)NCCN3CCCC3)c(C)o2)cc1 (stereo not drawn)
Second: COc1ccccc1NC(=O)CN1CCCCCC1
The “hERG current change (%, negative = inhibition) at 1uM” value of the first is lower: 1.33% for the first, 14.7% for the second.

Going from `CCOc1ccccc1N1CCN(C(=O)NCc2ccc(Cl)cc2)CC1` to `CCOc1ccccc1N1CCN(C(=O)c2cc3c(s2)CCC3)CC1`, the “hERG current change (%, negative = inhibition) at 1uM” value rises from 7.28% to 9.09%.

Compared with `c1cncc(-c2nn3c(Cn4cnc5ccccc54)nnc3s2)c1`, `N/C(=N\OC(=O)c1cccc2ccccc12)c1ccncc1` is higher in “hERG current change (%, negative = inhibition) at 1uM” value: 4.29% for the first, 5.77% for the second.

First: COc1ccccc1-c1coc2cc(OC(=O)N3CCOCC3)ccc2c1=O
Second: COc1cc(S(=O)(=O)N2CCN(Cc3ccccc3)CC2)ccc1Br
The “hERG current change (%, negative = inhibition) at 1uM” value of the first is higher: 11.2% for the first, 4.58% for the second.

Going from `CCOC(=O)C1=C(c2ccccc2)OC(N)=C(C#N)C1c1ccncc1` (stereo not drawn) to `CCOC(=O)COc1nc(-c2ccccc2)cc(-c2ccco2)c1C#N`, the “hERG current change (%, negative = inhibition) at 1uM” value rises from 10.5% to 14.3%.

Compared with `CC(C)CCN1CCN(Cc2cccc3nonc23)CC1CCO` (stereo not drawn), `CC(C)CN(C)C(=O)CCc1nnc(Cc2cccc(C(F)(F)F)c2)o1` is higher in “hERG current change (%, negative = inhibition) at 1uM” value: 8.74% for the first, 15.2% for the second.

First: COc1ccc(Cl)c2sc(N(Cc3cccnc3)C(C)=O)nc12
Second: COc1ccc(OC(=O)c2cccnc2)cc1
The “hERG current change (%, negative = inhibition) at 1uM” value of the first is higher: 11.5% for the first, 8.02% for the second.

Going from `O=C(CN1CCN(CC(=O)Nc2ccc(F)cc2)CC1)NCC1(N2CCOCC2)CCCCC1` to `O=C(NCC(=O)N1CCOCC1)c1ccc(Br)cc1`, the “hERG current change (%, negative = inhibition) at 1uM” value rises from -20.7% to 5.61%.

Compared with `CCOc1ccc(NC(=O)c2ccc(CSc3nnc(C)s3)cc2)cc1`, `Cc1cc(NC(=O)Nc2ccc(OCc3ccccc3)cc2)n(C)n1` is higher in “hERG current change (%, negative = inhibition) at 1uM” value: 8.09% for the first, 25.2% for the second.

First: CCN(C(=O)CN1CCN(S(=O)(=O)c2ccccc2C(F)(F)F)CC1)c1c(N)n(Cc2ccccc2)c(=O)[nH]c1=O
Second: COCCN(C(=O)COC(=O)CSc1ccccc1)c1c(N)n(Cc2ccccc2)c(=O)[nH]c1=O
The “hERG current change (%, negative = inhibition) at 1uM” value of the first is lower: 9.18% for the first, 11.8% for the second.

First: Cc1nn(Cc2cccc(C(=O)N3N=C(C(F)F)CC3(O)C(F)F)c2)c(C)c1[N+](=O)[O-] (stereo not drawn)
Second: Cc1nn(Cc2c(F)c(F)c(F)c(F)c2F)c(C)c1NC(=O)c1nn(C)cc1[N+](=O)[O-]
The “hERG current change (%, negative = inhibition) at 1uM” value of the first is lower: -11.2% for the first, -7.91% for the second.

Compared with `CC(=O)Nc1ccccc1Nc1cc(C#N)c(C#N)cc1[N+](=O)[O-]`, `Cc1cccc(NC(=O)CCn2c(=O)oc3ccccc32)c1` is higher in “hERG current change (%, negative = inhibition) at 1uM” value: 4.12% for the first, 14.2% for the second.

Compared with `COc1cc2c(cc1OC)C(c1ccc(Cl)cc1)=NCC2`, `FC(F)(F)c1cccc(Cn2nnnc2-c2ccc(Cl)cc2)c1` is higher in “hERG current change (%, negative = inhibition) at 1uM” value: -2.34% for the first, 22.3% for the second.

Compared with `OC(CN1CCCCC1)Cn1c2ccc(Cl)cc2c2cc(Cl)ccc21` (stereo not drawn), `COc1ccc2cc3cc(C(=O)N4CCCCC4C)oc3nc2c1` (stereo not drawn) is higher in “hERG current change (%, negative = inhibition) at 1uM” value: 8.82% for the first, 11.1% for the second.

First: CC(=O)c1cn(C2OC(CO)C3OC(C)(C)OC32)c(=O)n(C)c1=O (stereo not drawn)
Second: Cn1c(=O)c2c(nc(SCc3ccc(C(=O)O)cc3)n2C)n(C)c1=O
The “hERG current change (%, negative = inhibition) at 1uM” value of the first is higher: 13.2% for the first, 13.1% for the second.

Going from `CCNC(=S)N(Cc1cccs1)Cc1cc2cc(OCC)ccc2[nH]c1=O` to `COc1ccc(-c2cc(C(=O)OCC(=O)Nc3ccc4c(c3)OCO4)c3ccccc3n2)cc1`, the “hERG current change (%, negative = inhibition) at 1uM” value falls from 12.9% to 4.36%.

Compared with `Cc1nnsc1C(=O)NC(C)C12CC3CC(CC(C3)C1)C2` (stereo not drawn), `Cc1nn(C(C)C(=O)NCC2CCCO2)c(=O)c2c1sc1ccccc12` (stereo not drawn) is lower in “hERG current change (%, negative = inhibition) at 1uM” value: 10.4% for the first, 0.0864% for the second.

Compared with `COc1ccccc1Oc1ccc(S(=O)(=O)NCc2ccccn2)cc1`, `CSc1nc(-c2ccccc2)nn1S(=O)(=O)c1ccccc1` is lower in “hERG current change (%, negative = inhibition) at 1uM” value: 5.13% for the first, 3.41% for the second.

Compared with `Cc1ccc(S(=O)(=O)NCCC(=O)NC2CC2)cc1`, `COc1ccc(S(=O)(=O)NCC2CCCO2)cc1Cl` (stereo not drawn) is lower in “hERG current change (%, negative = inhibition) at 1uM” value: 16.6% for the first, 6.29% for the second.

First: C/C(=N\NC(=O)c1nn(C)cc1Br)c1cccc(NC(=O)C(C)(C)C)c1
Second: Cc1nc2cc(NC(=O)NC(C)(C)C)ccc2n1C
The “hERG current change (%, negative = inhibition) at 1uM” value of the first is lower: 8.22% for the first, 8.53% for the second.

Going from `Nc1nccc(-c2cccs2)n1` to `Cc1cc(=O)[nH]c(-c2ccccc2O)n1`, the “hERG current change (%, negative = inhibition) at 1uM” value falls from 9.87% to -4.57%.

First: CCC(=O)N1CCc2cc(Br)cc(S(=O)(=O)N3CCCC(C(=O)NC(C)(C)C)C3)c21 (stereo not drawn)
Second: CC(=O)N1CCN(c2ccc([N+](=O)[O-])c(-n3nc(C)cc3C)c2)CC1
The “hERG current change (%, negative = inhibition) at 1uM” value of the first is higher: 16.2% for the first, -9.97% for the second.

Compared with `CCN(c1ccccc1)S(=O)(=O)c1ccc(NC(=O)c2nc(S(C)(=O)=O)ncc2Cl)cc1`, `O=C(NC1(C(F)(F)F)C(=O)Nc2c1c(=O)[nH]c(=O)n2-c1ccccc1)c1ccncc1` (stereo not drawn) is lower in “hERG current change (%, negative = inhibition) at 1uM” value: 4.74% for the first, 4.12% for the second.

Going from `Cc1ccc(-n2ccnc2SCC(=O)O)cc1C` to `COc1cccc(C2C(C(N)=O)=C(C)Nc3nc(CCCO)nn32)c1` (stereo not drawn), the “hERG current change (%, negative = inhibition) at 1uM” value rises from -2.3% to 7.53%.

Compared with `COC(=O)C1=C(c2cccc(OCc3ccccc3)c2)C[C@@H]2CC[C@H]1N2C(=O)NC1CCN(Cc2ccccc2)CC1`, `COc1ccc2cc3cc(C(=O)NC4CC4)sc3nc2c1` is lower in “hERG current change (%, negative = inhibition) at 1uM” value: 14.7% for the first, 11.8% for the second.

First: Clc1ccc2c(c1)-c1[nH]ncc1CS2
Second: C=CCC1Cc2c(Br)cccc2C(CC=C)N1 (stereo not drawn)
The “hERG current change (%, negative = inhibition) at 1uM” value of the first is lower: -5.2% for the first, 5.53% for the second.

First: CC1(C)CC(=O)C2=C(C1)OC(N)=C([N+](=O)[O-])C2c1ccc(C#N)s1 (stereo not drawn)
Second: CC(C)[NH+]1CCC2(CC1)C(C#N)=C(N)NC([S-])=C2C#N
The “hERG current change (%, negative = inhibition) at 1uM” value of the first is higher: 3.2% for the first, -14.8% for the second.

Going from `C=C(C)Cn1c(SCCN2CCOCC2)nc2c1c(=O)[nH]c(=O)n2C` to `CCN(CC(=O)N(CC(C)C)c1c(N)n(CC(C)C)c(=O)[nH]c1=O)Cc1nc2ccccc2c(=O)[nH]1`, the “hERG current change (%, negative = inhibition) at 1uM” value rises from 2.02% to 12%.

In the case of `C#CCOCCOCCOCCNc1nc(N2CCN(C(=O)Cn3cc(CCC[NH+]=C(N)N)nn3)CC2)nc(N2CCN(C(=O)[C@H](C(C)C)n3cc(CCO)nn3)CC2)n1.[Cl-]`, the “hERG current change (%, negative = inhibition) at 1uM” value is reported as 9.28%.
